Measured values reported in the supplement of paper PMC11417369.
Some of the results follow.

test system: PfSIP2 AP2 domain 1 (GST-tagged); experiment: gcPBM binding intensity (ln(normalized median fluorescence intensity)); higher = stronger DNA binding
Method in brief: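 Plasmodium falciparum DNA-binding domains carrying a GST tag were expressed in E. coli and applied for 1 h, at about 25 μg on average, to an Agilent 4 × 180k array. The array held primer-extended double-stranded 36-bp intergenic genomic probes together with negative controls, and binding took place in 1× PBS with 1% milk, 0.2 mg/ml BSA, 0.5% salmon testes DNA and 0.03% Triton X-100. An Alexa488 anti-GST antibody detected bound protein, and the array was scanned at 488 nm. Binding intensity is taken as the highest Masliner-normalised natural-log median intensity across replicate spots of either probe orientation.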

First: TAAATGGGTGTTAATGCACACGATATGTCTATATAT [CACACA_site5321]
Second: TATTTATTTTTCTGTTGTACTTTTCAACATGTTACA [XGTACX_site7457]
The “gcPBM binding intensity (ln)” value of the first is lower: 7.07 for the first, 7.18 for the second.

Going from “TCTACATATTAATTATGTACGAATTATTATTAGTAA [XGTACX_site6924]” to “TATTTATGTTCATATAAACACACGTAAAATTCAAGG [CACACA_site1538]”, the “gcPBM binding intensity (ln)” value rises from 6.82 to 7.15.

“GTCCCTATAAGGGGAACACACATAAATGGATATATA [CACACA_site6612]” and “CATATTCATAAAAGTTGTACATGCAATTTTTTTTTT [XGTACX_site2261]” are the same in “gcPBM binding intensity (ln)” value: 6.81 for the first, 6.81 for the second.

Compared with “TCAATAAAAAAAAACGCACACACAAATATATTCCAT [CACACA_site1223]”, “TATTTTTTTTTTATATGTACATAATTTCAAATAAAT [XGTACX_site7747]” is higher in “gcPBM binding intensity (ln)” value: 6.99 for the first, 7.03 for the second.

First: AAGGATATAACATACACACACACACCGATATATATA [CACACA_site6136]
Second: ATAACGATATATGTGCGTACTTATAGAATAAGCAAA [XGTACX_site6743]
The “gcPBM binding intensity (ln)” value of the first is higher: 7.47 for the first, 7.07 for the second.

First: AAAATTATATATTATTGTACATAAAATTTTGACATA [XGTACX_site4886]
Second: ATATATCATATTATAGTGCATTTATAATAATATTAT
The “gcPBM binding intensity (ln)” value of the first is lower: 6.93 for the first, 9.33 for the second.

Going from “TATTATCTGTAGTGTACACATATTATATAGTACTTT [CACACA_site4582]” to “ATATATATATATATATGTACATATATGTATACCTTA [XGTACX_site6791]”, the “gcPBM binding intensity (ln)” value rises from 7.36 to 9.28.

First: ATAAATACTAGGCACACACACATATATATATATATA [CACACA_site2080]
Second: CAATAGTTCTTATGGGTGCAAACCACATATATATAA [GTGCAC_site9606]
The “gcPBM binding intensity (ln)” value of the first is lower: 9.33 for the first, 11.3 for the second.

Compared with “TTTATTTATCTGTATACACACTTTAATGAAAAGTTG [CACACA_site5400]”, “ACAAATCTAAGATAGTGTACATTTATATATATATAT [XGTACX_site8740]” is higher in “gcPBM binding intensity (ln)” value: 6.99 for the first, 9.36 for the second.

First: TATATATATATATAAGTGCATATAAAAATCGTTCGT
Second: ATTTTTTTTTTTTTTTTTTTTTTTTGGAGAAAGAGA [CACACA_negctrl_site1119]
The “gcPBM binding intensity (ln)” value of the first is higher: 9.51 for the first, 6.9 for the second.

First: ATATATATATAATAAACACACACATATACATATATG [CACACA_site9145]
Second: AATATAAATAAAAACACACACACACCCATATATATA [CACACA_site2267]
The “gcPBM binding intensity (ln)” value of the first is higher: 8.68 for the first, 7.55 for the second.

Compared with “TTTATATACACACAGAAGAACAGAAATATTATATAT [TGCATGCA_negctrl_site483]”, “AGGAAAAACTTGAATGCATGCGCACATTCTAGTTTG [TGCATGCA_site776]” is lower in “gcPBM binding intensity (ln)” value: 7.2 for the first, 6.99 for the second.

Compared with “TATTATTACGTAATATGTACATATATTTATACCACT [XGTACX_site5918]”, “AAAAATATATATAACACACACATAATATATATATAT [CACACA_site2537]” is higher in “gcPBM binding intensity (ln)” value: 7.19 for the first, 8.82 for the second.

Compared with “TTATAACACATTACATGTACAAATATAAATATATTC [XGTACX_site6503]”, “AAAAAAAAAAAAAAATGTACAAAAATTACTATAAAA [XGTACX_site7683]” is higher in “gcPBM binding intensity (ln)” value: 7 for the first, 7.33 for the second.

Compared with “TTTTTTTTTGTTTACACACACAAAATATTATATGTA [CACACA_site2470]”, “ATTAGCTACAAACAAAGGCTACCTATAGCAAGAGGG [GTGCAC_negctrl_site33]” is higher in “gcPBM binding intensity (ln)” value: 6.89 for the first, 7 for the second.

Going from “TATATATATACATACATACACACATATATATATATA [CACACA_site4109]” to “ATAATTTCTTTTACATGTACAAAATTTGCTTATATG [XGTACX_site5388]”, the “gcPBM binding intensity (ln)” value falls from 9.25 to 7.1.

First: ATATATATAATGTGAAGTACATTTTGTTTACATATT [XGTACX_site8405]
Second: TTTACACTTTCCAATAGTACATATTAGAATAATTCT [XGTACX_site7734]
The “gcPBM binding intensity (ln)” value of the first is higher: 7.33 for the first, 7.26 for the second.

First: TTTATTAAATAATCTCTTTTTATTACATAATAATAA [XGTACX_negctrl_site382]
Second: GGATTATTTATAGGAGTGCATACATATATATATATA [GTGCAC_site9454]
The “gcPBM binding intensity (ln)” value of the first is lower: 6.67 for the first, 9.49 for the second.

Going from “TAATTTATGGAATATGTGCACTTGCTGATCACTTTT [GTGCAC_site9843]” to “AATATCTAAATAAAGTGTACTTACCTTATTAATTAT [XGTACX_site2276]”, the “gcPBM binding intensity (ln)” value falls from 9.87 to 6.95.

First: CCAATACATAGAAACTGTACATTATGCATTATACAC [XGTACX_site3531]
Second: AATAAACATAAATACACACACAAAAAAAAAAACATA [CACACA_site4396]
The “gcPBM binding intensity (ln)” value of the first is higher: 7.15 for the first, 7.03 for the second.

First: TTTTTTTTTTTTTGATGTACTAAAAAAAATGAGCCT [XGTACX_site8535]
Second: AAAAACAAAATATAATGTACACAATATATGTATATA [XGTACX_site2301]
The “gcPBM binding intensity (ln)” value of the first is higher: 7.01 for the first, 6.98 for the second.

Compared with “AAATATTACTACACTACATGCAGTTTTAGGTACACT [TGCATGCA_site42]”, “TGTAGTCTGGAGAAGAGTACATAGTATCTGGTAACA [XGTACX_site4944]” is higher in “gcPBM binding intensity (ln)” value: 6.95 for the first, 7.15 for the second.

Going from “TATAGGTAAATGGACACACACATATTTATATTTATA [CACACA_site7683]” to “TAATGTTTTTATATCACACACAAATATTAAATGATT [CACACA_site543]”, the “gcPBM binding intensity (ln)” value falls from 7.02 to 6.82.

Going from “TTATTAGGTGTATAATGTACATATAATATATATATA [XGTACX_site3398]” to “ATAGAAGCATCACACTGTACATGGATGAACAGAAAA [XGTACX_site7311]”, the “gcPBM binding intensity (ln)” value falls from 8.69 to 6.86.

Compared with “TATAATATAAGGATCACACACAAACAGACATATATA [CACACA_site557]”, “GATATTAAAATATGTAGTACACATATTATATCATAT [XGTACX_site4167]” is lower in “gcPBM binding intensity (ln)” value: 7.02 for the first, 6.95 for the second.

First: TTAAAAATTATGGATACACACATATATATATATATT [CACACA_site2383]
Second: ATAGTTCCTTTTAATACACACAAAAAAAAAAACATG [CACACA_site3415]
The “gcPBM binding intensity (ln)” value of the first is higher: 7.24 for the first, 7.04 for the second.

First: TTATTATCATCAAATCAAAAAATTCTTTTACCTGTT [CACACA_negctrl_site1348]
Second: TATATATATATATGTAGTACCTATAATATTAAATAC [XGTACX_site6118]
The “gcPBM binding intensity (ln)” value of the first is lower: 6.76 for the first, 9.16 for the second.

Compared with “AAGAAAAGAAACAAAAAAAAAAAGAAATAAAAGGAA [TGCATGCA_negctrl_site171]”, ATCAATAAATAAAATGTGCACATAATATATTAATAC is higher in “gcPBM binding intensity (ln)” value: 6.51 for the first, 8.61 for the second.

For “TATGAATGGTTAAGTACACACATATTAATATAGGTA [CACACA_site7606]”, the “gcPBM binding intensity (ln)” value was 7.02.
